Literature values as cited in patent US20230332203A1, “RAPID ANTIBIOTIC SUSCEPTIBILITY TESTING” (IOWA STATE UNIVERSITY RESEARCH FOUNDATION, INC., priority 2022, published 2023).

Test system: E. coli MG1655 (MG, susceptible to ciprofloxacin)
Details: cited from earlier work

O=C(O)c1cn(C2CC2)c2cc(N3CCNCC3)c(F)cc2c1=O [ciprofloxacin]
previously recorded MIC obtained from broth dilution: 0.078 µg/mL
